The record followed here is the supplement of paper PMC7266297.

Assay [1] concerns KB-3-1. Kind of assay: growth inhibition relative to DMSO control (SRB); cervical cancer cells: KB-3-1 is the parent and KB-V1 overexpresses MDR1; SRB is the sulforhodamine B stain; higher = more growth inhibition. The settings on record: 1 µM; 72 h.
Assay [2] concerns KB-V1. The assay is described as above. The settings on record: 1 µM; 72 h.

Where a name gives a salt, the structure may show the parent alone. This is one part of the list. Single values are uncertain, as repeats are few or missing.
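Further: Read-out is SRB optical density at 490 nm, with the control being wells given 0.5% DMSO vehicle, and compound added one day after cells were plated.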

As for `CCOC(=O)C1=C(COCCN)NC(C)=C(C(=O)OC)C1c1ccccc1Cl` (stereo not drawn) [Amlodipine], the growth inhibition in assay [1] is 51%; in assay [2] it was 20.6%.

For the compound `Cc1cccc(-c2[nH]ncc2-c2ccc3ncccc3n2)n1`, the growth inhibition in assay [1] and in assay [2] was < 0% throughout.

`Cn1cc(C2=C(c3cn(CCCSC(=N)N)c4ccccc34)C(=O)NC2=O)c2ccccc21` [Ro 31-8220 Mesylate]: the growth inhibition in assay [1] was 76.9%; in assay [2] it was 8.44%.

Turning to `C[C@@H](N)[C@H]1CC[C@H](C(=O)Nc2ccncc2)CC1`, the growth inhibition in assay [1] was 13.8%; in assay [2] it was 28%.

For `Cc1c(C(=O)NN2CCCCC2)nn(-c2ccc(Cl)cc2Cl)c1-c1ccc(I)cc1`, the growth inhibition was found to be 23.6% in assay [1] and 40.2% in assay [2].

In the case of `Cc1cc(OCCCS(C)(=O)=O)cc(C)c1-c1cccc(COc2ccc3c(c2)OC[C@H]3CC(=O)O)c1`, the growth inhibition in assay [1] and in assay [2] was < 0% throughout.

In the case of `C=C[C@@]1(C)CC(=O)[C@]2(O)[C@@]3(C)[C@@H](O)CCC(C)(C)[C@@H]3[C@H](O)[C@H](OC(C)=O)[C@@]2(C)O1` [Forskolin], the figures for the growth inhibition in assay [1] and in assay [2] were 26% and 10.8%, respectively.

On to `C#Cc1cccc(Nc2ncnc3cc(OCCOC)c(OCCOC)cc23)c1` [Erlotinib HCl (OSI-744)], for which the growth inhibition was determined as 32.4% in assay [1] and 8.7% in assay [2].

`C[C@]1(c2nc3c(C(N)=O)cccc3[nH]2)CCCN1` [Veliparib (ABT-888)]: the growth inhibition in assay [1] amounted to 44.6%; in assay [2] it was 32.5%.

`CCCCOc1ccc(C(=O)Nc2ccc(F)cc2F)cc1`: the growth inhibition in assay [1] was found to be 16.7%; in assay [2] it was 54.6%.

As to `Cc1c(Nc2ncccc2C(=O)O)cccc1C(F)(F)F` [Flunixin Meglumin], the growth inhibition is < 0% in assay [1] and 32.7% in assay [2].

`CCOC(=O)OC(C)OC1=C(C(=O)Nc2ccccn2)N(C)S(=O)(=O)c2ccccc21` (stereo not drawn) [Ampiroxicam]: the growth inhibition in assay [1] and in assay [2] was < 0% each time.

As to `Cc1c(C(=O)N2CCOc3ccc(-c4ccc(N)nc4)cc3C2)ccc(S(C)(=O)=O)c1F`, the growth inhibition in assay [1] is 73.2%; in assay [2], 42.7%.

With `C=CCc1cccc(/C=N/NC(=O)CN2CCN(Cc3ccccc3)CC2)c1O`, the growth inhibition in assay [1] and in assay [2] was < 0% each time.

With `COc1cc2c(cc1O)CC[C@@H]1[C@@H]2CC[C@]2(C)[C@@H](O)CC[C@@H]12` [2-Methoxyestradiol (2-MeOE2)], the growth inhibition in assay [1] turned out to be 38.8%; in assay [2] it was 49.3%.

For `Cc1[nH]c2ccccc2c1CCNC(=O)c1cccs1`, the growth inhibition worked out at 47.5% in assay [1] and 9.26% in assay [2].

Take `C#Cc1cccc(Nc2ncnc3cc(OCCOC)c(OCCO)cc23)c1`: the values for the growth inhibition in assay [1] and in assay [2] were < 0% and 32.7%, respectively.

Take `COc1ccccc1N1CCN(CCCNc2cc(=O)n(C)c(=O)n2C)CC1` [Urapidil HCl]: the growth inhibition in assay [1] is 49.5%; in assay [2] it was 11%.

Take `CO[C@H]1C[C@@H]2CC[C@@H](C)[C@@](O)(O2)C(=O)C(=O)N2CCCC[C@H]2C(=O)O[C@H]([C@H](C)C[C@@H]2CC[C@@H](OP(C)(C)=O)[C@H](OC)C2)CC(=O)[C@H](C)/C=C(\C)[C@@H](O)[C@@H](OC)C(=O)[C@H](C)C[C@H](C)/C=C/C=C/C=C/1C` [Ridaforolimus (Deforolimus, MK-8669)]: the growth inhibition in assay [1] worked out at 67.7%; in assay [2], 42%.
